In PubChem BioAssay AID624296 (National Center for Advancing Translational Sciences (NCATS), 2012):
Among all 350,000 compounds or so, about 9,900 (2.8%) were called active. The shares of active, inactive and inconclusive entries below differ from those in the screen. Calls follow the shape of the dose curve; as a rule, active = well fitted activation curve with a large enough effect; inconclusive = small, poorly fitted or top-dose-only effect; inactive = no such curve, though single readings can be large or run the other way. No potency is given beside an inconclusive call; the fits are too rough.

Assay: A quantitative high throughput screen for small molecules that induce DNA re-replication in MCF 10a normal breast cells. Also: nearly all actives have a fitted effect of over 50% in size.
Conditions: MCF 10A DNA re-replication, Hoechst nuclear intensity, 48 h; series mostly up to 46.1 µM
Potency is read from the fitted curve at half-maximal effect; tags tell the direction and shape of the fitted curve.

| SMILES | Potency |
| --- | --- |
| Cc1ccc(C(O)c2ccc(-n3ccnc3)cc2)cc1 (stereo not drawn) | inactive |
| O=C(Nc1ccccc1Cl)C1CCN(Cc2cnn(-c3ccccc3)c2-n2cccc2)CC1 | inconclusive [activator, partial curve] |
| O=C(NCC(F)(F)F)Nc1ncccn1 | inconclusive [activator, single point] |
| COc1ccc(Cl)cc1NC(=O)CSc1nc(C)cc(C)n1 | inactive |
| COc1cccc(NC(=O)c2nc(S(C)(=O)=O)ncc2Cl)c1 | active: 5.8 µM |
| Fc1ccc(OCCCCN2CCOCC2)cc1 | inconclusive [activator, partial curve, poor fit] |
| CC(=O)N1c2ccc(S(=O)(=O)N(C)Cc3ccccc3)cc2CC1C (stereo not drawn) | inconclusive [activator, partial curve, poor fit] |
| COc1cccc(NC(=O)CSc2nc3c(oc4ccccc43)c(=O)[nH]2)c1 | inconclusive [activator, partial curve, poor fit] |
| COc1ccc(NC(=O)CSc2nc3sc4c(c3c(=O)n2-c2ccc(OC)cc2)CCN(C)C4)cc1 | inconclusive [activator, single point] |
| COc1cc(NS(=O)(=O)c2ccc(N/C=C\C(=O)c3ccc(OC)c(OC)c3)cc2)nc(OC)n1 | inconclusive [activator, single point] |
| COc1cccc(CNS(=O)(=O)/C=C/c2ccc3c(c2)OCO3)c1 | inconclusive [activator, single point] |
| O=C(c1ccc(Cl)s1)N1CCN(C23CC4CC(CC(C4)C2)C3)CC1 | inconclusive [activator, partial curve] |
| COc1ccc(-c2nnc(SCC(=O)c3cccs3)o2)cc1 | inconclusive [activator, single point] |
| CC1CCN(CCCCOc2ccccc2F)CC1 | inconclusive [activator, partial curve, poor fit] |
| O=C1OC(Nc2nc(-c3ccc(F)cc3)cs2)c2ccccc21 (stereo not drawn) | active: 20.6 µM |
| COc1ccc(S(=O)(=O)N2CCCCCC2)cc1C(=O)N(C)Cc1c(F)cccc1Cl | inconclusive [activator, partial curve, poor fit] |
| Nc1sc(-c2ccccc2)cc1-c1n[nH]c(=S)n1C1CCCCC1 | active: 3.26 µM |
| Fc1ccccc1/C=N/Nc1nc(N2CCCCC2)nc(N2CCCCC2)n1 | inconclusive [activator, full curve, poor fit] |
